Data taken from PubChem BioAssay AID624296 (National Center for Advancing Translational Sciences (NCATS), 2012).
About 9,900 (2.8%) of roughly 350,000 compounds were called active. The inconclusive results got no clear call from the source; some entries with a clear call stand among them for comparison. Calls follow the shape of the dose curve; as a rule, active = well fitted activation curve with a large enough effect; inconclusive = small, poorly fitted or top-dose-only effect; inactive = no such curve, though single readings can be large or run the other way. No potency is given beside an inconclusive call; the fits are too rough.

Assay: A quantitative high throughput screen for small molecules that induce DNA re-replication in MCF 10a normal breast cells. Also: nearly all actives have a fitted effect of over 50% in size. As to activity, positive = re-replication: % of control where 0% means no effect.
Details: MCF 10A DNA re-replication, Hoechst nuclear intensity, 48 h; activity, positive = re-replication: at 46.1 µM (top of the series)
Potency is read from the fitted curve at half-maximal effect; tags tell the direction and shape of the fitted curve.

Row | SMILES | Potency | activity, positive = re-replication
1 | COc1ccc(C(C)=O)c(Oc2nc(CN3CCOCC3)nc3scc(-c4cccs4)c23)c1 | inconclusive [activator, partial curve] | –
2 | COc1ccc(-c2cc(-c3nnc(COC(=O)c4ccncc4)o3)c3ccccc3n2)cc1OC | inconclusive [activator, single point] | –
3 | Cc1ccc(NC(=O)C2(c3ccccc3)CCCC2)nc1 | – | inactive: 8.64%
4 | Cc1cc(C(=O)NCCCn2ccnc2)cs1 | – | inactive: -12.8%
5 | O=C(Nc1ccccn1)C1CCCN(c2ncnc3c2nc2n3CCCCC2)C1 (stereo unspecified) | active: 23.1 µM | –
6 | CC(=O)Nc1ccc(OCC(O)CN2CCN(S(=O)(=O)c3ccc(NC(C)=O)cc3)CC2)cc1 (stereo unspecified) | – | inactive: -24.8%
7 | Cc1cccc(NC(=O)CSc2nnnn2C)n1 | inconclusive [activator, single point] | –
8 | CCC(=O)c1ccc(OCCn2cnc3ccccc32)cc1 | – | inactive: -3.97%
9 | CC(C)c1cc(C(=O)N2CCCC(C(=O)c3ccc4ccccc4c3)C2)on1 (stereo unspecified) | inconclusive [activator, partial curve, poor fit] | –
10 | CCOC(=O)Cn1c(-c2ccccc2)nc2ccccc2c1=O | inconclusive [activator, partial curve, poor fit] | –
11 | C[C@H](CCC(=O)O)[C@H]1CC[C@@H]2[C@@H]3[C@@H](O)C[C@H]4C[C@@H](O)CC[C@@]4(C)[C@H]3CC[C@@]21C | – | inactive: -5.61% [at 20.6 µM]
12 | C/C(=N/N=C/c1ccc(N(C)C)cc1)c1ccccc1 | inconclusive [activator, partial curve, poor fit] | –
13 | CCOC(=O)c1cc(-c2ccccc2)nc2nc(N(CC)CC)sc12 | active: 5.17 µM | –
14 | COc1cccc(/C=C/C(=O)c2ccc3c(c2)OCCO3)c1OC | inconclusive [activator, single point] | –
15 | C=C1CCN([C@@H](CC(C)C)C(=O)N2CCCC2)S(=O)(=O)c2ccccc21 | – | inactive: 2.11%
16 | COc1ccc(Cl)cc1C=CC=NNC(=O)c1ccncc1 | – | inactive: 0.633%
17 | CC1(C)C2CCC1(C)C(OC(=O)CNc1ccccc1)C2 (stereo unspecified) | – | inactive: 14.2%
18 | O=C(Cc1ccccc1)N/N=C/c1ccc2cccc(O)c2n1 | inconclusive [activator, partial curve, poor fit] | –
19 | O=C(c1ccco1)N1N=C(c2ccncc2)CC1(O)C(F)(F)F (stereo unspecified) | – | inactive: -0.309%
20 | N=C1C(=O)OCC1c1ccccc1NC(=O)CN1CCOCC1 (stereo unspecified) | – | inactive: 8.25%
21 | O=C(CCn1cnc(-c2ccccc2)c1-c1ccccc1)N/N=C/c1ccc(O)cc1 | inconclusive [activator, single point] | –
22 | CCN=C1NN=C(c2cc(C)n(CCc3ccccc3)c2C)CS1 | inconclusive [activator, single point] | –
23 | O=C(O)c1cccc(Nc2c3ccccc3nc3ccccc23)c1 | – | inactive: 17.2%

Row | SMILES | Potency | activity, positive = re-replication
24 | CCN1C[C@@H]2[C@@H]3C(=O)N(C)C(=O)[C@@H]3[C@](CC)(C1=O)N2C(=O)c1ccccc1 | inconclusive [activator, full curve, poor fit] | –
25 | Cc1ccc(C)c(OCc2cc(C(=O)N(C)Cc3nccn3C)no2)c1 | – | inactive: 16.2%
26 | C=CCOc1ccc(/C=C/C(=O)OCC(=O)NCCC2=CCCCC2)cc1 | inconclusive [activator, single point] | –
27 | O=S(=O)(c1ccc(Br)c2nsnc12)N1CCOCC1 | active: 20.6 µM | –
28 | CCCN(CCC)CC(O)Cn1cc(/C=C/C(=O)c2ccccc2)c2ccccc21 (stereo unspecified) | active: 5.17 µM | –
29 | CS(=O)(=O)c1nc(S(=O)(=O)c2ccc(Cl)cc2)c(NCCN2CCOCC2)s1 | – | inactive: 2.6%
30 | O=C(CNC(=O)Cc1ccccc1)N=Nc1c(O)[nH]c2ccccc12 | – | inactive: -0.28%
31 | CN(Cc1c(C(=O)N/N=C/c2ccccc2F)nnn1-c1nonc1N)c1ccccc1 | inconclusive [activator, single point] | –
32 | COc1ccc(-c2noc(CCC(=O)N3CCN(c4ccc(C(F)(F)F)cc4)CC3)n2)cc1 | inconclusive [activator, partial curve] | –
33 | Cc1ccc2c(c1)c1c3n2CCN(C(=O)CN2CCN(C)CC2)C3CCC1 (stereo unspecified) | inconclusive [activator, single point] | –
34 | CC(C)C[C@H](NC(=O)c1nc[nH]c1C(=O)N1CCNCC1)C(=O)OCc1ccccc1 | – | inactive: -2.45%
35 | O=C(OCC(=O)N1CCN(C(=O)c2ccco2)CC1)c1c(Cl)cccc1Cl | inconclusive [activator, single point] | –
36 | Cc1ccc(-n2c(SCC(=O)c3c(N)n(C)c(=O)n(C)c3=O)nc3sc4c(c3c2=O)CCCC4)c(C)c1 | inconclusive [activator, full curve] | –
37 | CC(C)n1c(O)c(/C=C2\C=Nc3ccccc32)sc1=Nc1ccccc1 | inconclusive [activator, single point] | –
38 | O=C(NC1CCCCC1)C(c1ccco1)N(C(=O)c1csnn1)C1CCCC1 (stereo unspecified) | – | inactive: 0.154%
39 | CC(C(=O)NCCN1C(=O)S/C(=C\c2cccnc2)C1=O)N1C(=O)c2ccccc2C1=O (stereo unspecified) | – | inactive: 0.78%
40 | COc1cc(-c2ccc3oc(-c4cccc(C)c4)c(C#CC4(O)CCCCC4)c3c2)cc(OC)c1OC | inconclusive [activator, full curve, poor fit] | –
41 | CCCCCCSc1ccc(-c2nc3ccc(Cl)cn3c2NCc2ccccc2)cc1 | inconclusive [activator, partial curve, poor fit] | –
42 | O=c1oc2cc(O)ccc2cc1S(=O)(=O)c1ccccc1 | active: 2.59 µM | –
43 | CSCc1ccc(C(=O)NCCSc2ccc(Br)cc2)cc1 | inconclusive [activator, partial curve, poor fit] | –
44 | COc1ccc(CCNC(=O)CCCCCn2c(SCC(N)=O)nc3cc4c(cc3c2=O)OCO4)cc1OC | – | inactive: 1.29%
45 | CN(C)C(CNC(=O)c1c(F)cccc1Cl)c1ccco1 (stereo unspecified) | inconclusive [activator, partial curve, poor fit] | –
46 | Fc1cc(NC(=S)NCc2ccc(CNC(=S)Nc3ccc(Cl)c(F)c3)cc2)ccc1Cl | inconclusive [activator, partial curve] | –
